Experimental data as given in publication PMC6919601, “Identification of Plasmodium dipeptidyl aminopeptidase allosteric inhibitors by high throughput screening” (PLoS ONE, 2019).
About 230 (0.21%) of roughly 110,000 compounds showed an effect of 50% or more. This is one part of the list.
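Further: 30 min substrate incubation versus DMSO and 10 µM JCP410 controls.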

These compounds were tested against DPAP1 (Plasmodium falciparum, UniProt Q8IIJ9) (assay: primary screen, percent inhibition; read by cleavage of a fluorogenic dipeptide substrate; higher = more effect of the substance).
Chain of DPAP1 (Q8IIJ9 whole entry, looked up): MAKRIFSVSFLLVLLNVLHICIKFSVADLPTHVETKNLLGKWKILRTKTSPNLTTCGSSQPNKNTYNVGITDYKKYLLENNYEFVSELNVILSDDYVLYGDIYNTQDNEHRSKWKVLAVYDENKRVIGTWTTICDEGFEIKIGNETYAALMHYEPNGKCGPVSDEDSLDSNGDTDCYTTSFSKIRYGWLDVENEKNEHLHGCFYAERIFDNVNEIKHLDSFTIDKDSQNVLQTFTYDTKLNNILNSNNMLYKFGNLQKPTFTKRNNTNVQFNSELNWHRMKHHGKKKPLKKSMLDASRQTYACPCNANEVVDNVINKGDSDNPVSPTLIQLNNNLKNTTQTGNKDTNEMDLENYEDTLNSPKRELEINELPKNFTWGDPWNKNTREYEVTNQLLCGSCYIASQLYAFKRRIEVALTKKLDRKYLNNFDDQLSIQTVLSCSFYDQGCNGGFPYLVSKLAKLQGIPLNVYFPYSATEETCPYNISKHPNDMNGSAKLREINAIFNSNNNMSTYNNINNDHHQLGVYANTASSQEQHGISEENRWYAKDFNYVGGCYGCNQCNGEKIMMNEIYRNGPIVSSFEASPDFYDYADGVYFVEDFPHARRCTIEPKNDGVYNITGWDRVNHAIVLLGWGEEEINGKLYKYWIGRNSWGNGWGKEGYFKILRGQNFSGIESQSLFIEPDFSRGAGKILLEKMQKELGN
Set-up: species or system P. falciparum D10 trophozoite lysates; single well
With `Clc1ccccc1CNCc1cn2c(-c3ccc(Br)cc3)nnc2s1` the “% Inhibition @ 10 uM” value was -9.42%. `O=C(COc1ccc(Cl)cc1)NCc1nnc(SCC(=O)N2CCCC2)o1` was tested, and the “% Inhibition @ 10 uM” value was -7.21%. In the case of `COC(=O)c1ccc(OCC2c3cc(OC)c(OC)cc3CCN2C(=O)Cc2cccs2)cc1` (centres unmarked), the “% Inhibition @ 10 uM” value is reported as 0.237%. With `CCCN(CCC)CCNC(=O)C1CCN(c2nc3ccc(OC)cc3s2)CC1` the “% Inhibition @ 10 uM” value was 3.33%. With `CN1C(=O)c2cccc3c(S(=O)(=O)N4CCCC4C(=O)O)ccc1c23` (centres unmarked) the “% Inhibition @ 10 uM” value was -0.95%. `COc1ccc(-n2c(Cc3cccn3C)nnc2SCC(=O)NCc2ccco2)cc1` was tested, and the “% Inhibition @ 10 uM” value was -7.65%. In the case of `Cc1ccc(CNC(=O)CSCc2csc(C)c2)cc1`, the “% Inhibition @ 10 uM” value is reported as -0.231%. For `CCC(C)NC(=O)c1nn(C)c2c1COc1ccccc1-2` (centres unmarked), the “% Inhibition @ 10 uM” value was 3.3%. For `CC1=CCC(c2cnc(-c3ccccc3)c(C)c2)NC1c1ccccc1` (centres unmarked), the “% Inhibition @ 10 uM” value was -8.11%. `Cc1[nH]c2ccccc2c1/C=C1\C(=N)N2N=C(N3CCC(C)CC3)SC2=NC1=O` was tested, and the “% Inhibition @ 10 uM” value was -3.44%. In the case of `CC(=O)c1cc(-c2ccccc2)n(CC(=O)NCc2ccccc2F)c1C`, the “% Inhibition @ 10 uM” value is reported as 7.81%. In the case of `Cc1ccc(S(=O)(=O)c2nnn3c2nc(NCCC(C)C)c2sccc23)cc1`, the “% Inhibition @ 10 uM” value is reported as 4.58%. For `CC(=O)N1N=C(N)SC1c1ccc(N(C)C)cc1` (centres unmarked), the “% Inhibition @ 10 uM” value was -3.93%. For `Cc1nnc(NC(=O)C(=O)c2cc(C)n(-c3ccccc3)c2C)s1`, the “% Inhibition @ 10 uM” value was 0.655%. In the case of `O=C(O)c1ccc(Oc2ccc(S(=O)(=O)c3ccc(C(=O)O)cc3)cc2)cc1`, the “% Inhibition @ 10 uM” value is reported as 1.63%. In the case of `COc1c(Cl)cc(Cl)cc1-c1c(C#N)c(N)n2c(nc3ccccc32)c1C#N`, the “% Inhibition @ 10 uM” value is reported as 3.46%. `CC(Oc1ccccc1)C(=O)Nc1ccc(C(=O)c2ccccc2)cc1` (centres unmarked) was tested, and the “% Inhibition @ 10 uM” value was -2.65%. In the case of `COc1ccc2c(C)nc(/N=C(N)/N=C(\C)c3ccccc3C(=O)O)nc2c1`, the “% Inhibition @ 10 uM” value is reported as -1.41%. `CC1=C(C(=O)OCc2ccccc2)C(c2sccc2C)NC(S)=N1` (centres unmarked) was tested, and the “% Inhibition @ 10 uM” value was -5.63%. For `CCOc1cccc(C(=O)Nc2ccc(Cl)cn2)c1`, the “% Inhibition @ 10 uM” value was -0.0938%. In the case of `O=C1c2ccc(Oc3ccc4c(c3)C(=O)N(CC3CCCO3)C4=O)cc2C(=O)N1CC1CCCO1` (centres unmarked), the “% Inhibition @ 10 uM” value is reported as -7.28%. In the case of `O=C(c1ccc(Br)cc1)N1CCC(Cc2ccccc2)CC1`, the “% Inhibition @ 10 uM” value is reported as 1.96%. In the case of `CC(CCCC(C)(C)O)NC1CCc2ccccc2C1` (centres unmarked), the “% Inhibition @ 10 uM” value is reported as -5.44%. With `CCOc1ccc(C(=O)Nc2c3c(nn2-c2ccc(OC)cc2)CS(=O)(=O)C3)cc1` the “% Inhibition @ 10 uM” value was 4.37%. With `CNC(=O)/C(C#N)=C/c1c(Oc2ccc(C)cc2)nc2ccccn2c1=O` the “% Inhibition @ 10 uM” value was -1.86%. In the case of `COc1ccc(C(=N)NOC(=O)c2ccc(Br)o2)cc1`, the “% Inhibition @ 10 uM” value is reported as 5.3%. `COC(=O)c1ccc(CSc2nc3ccncc3n2Cc2ccccc2F)cc1` was tested, and the “% Inhibition @ 10 uM” value was -3.57%. `Cc1cc(S(=O)(=O)Nc2c(C)nc3sccn3c2=O)ccc1F` was tested, and the “% Inhibition @ 10 uM” value was 0.454%. For `CCN(CC)CCNC(=O)C1=C(C)C(=O)OC12CCN(C(C)=O)CC2`, the “% Inhibition @ 10 uM” value was -8.59%. For `CC1=C(C(=O)N2CCOCC2)C(c2cccc(O)c2)C2=C(O)CC(C)(C)CC2=N1` (centres unmarked), the “% Inhibition @ 10 uM” value was -8.35%. With `COc1cc2c(cc1OC)CN(Cc1[nH]cnc1C)CC2` the “% Inhibition @ 10 uM” value was -6.62%. `Cc1cccc(C)c1N1C(=O)c2ccc(F)cc2C1=O` was tested, and the “% Inhibition @ 10 uM” value was 3.5%. With `Cc1ccc2oc(=O)c3cc(C(=O)Nc4cccnc4)sc3c2c1` the “% Inhibition @ 10 uM” value was 7.78%. `O=C1OC(/C=C/c2ccccc2)=NC/1=C/c1ccccc1C(F)(F)F` was tested, and the “% Inhibition @ 10 uM” value was 12.3%. For `Cc1cc(C)nc(SCCC(=O)Nc2ccccc2Cl)n1`, the “% Inhibition @ 10 uM” value was 3.8%. For `Cc1ccc(-c2onc(C)c2C)cc1S(=O)(=O)NC(C)(C)C`, the “% Inhibition @ 10 uM” value was -6.49%. In the case of `Fc1ccc(CNC2CCN(Cc3ccccc3)CC2)cc1`, the “% Inhibition @ 10 uM” value is reported as -6.62%. `O=C(NC1CCCCC1)C1CCCN(c2ncnc3c2nc2n3CCCCC2)C1` (centres unmarked) was tested, and the “% Inhibition @ 10 uM” value was -0.74%. In the case of `CCN(CC)CCCNC(=O)c1ccc(CS(=O)(=O)c2ccccc2OC)o1`, the “% Inhibition @ 10 uM” value is reported as -3.09%. `Cc1ccc(NC(=O)CN2C(=O)N/C(=C/c3ccc(-c4ccc(F)cc4)o3)C2=O)cc1` was tested, and the “% Inhibition @ 10 uM” value was 3.3%. For `CCOC(=O)N1CCN(C(=O)c2cc3n(n2)C(C(F)(F)F)CC(c2ccc4c(c2)OCO4)N3)CC1` (centres unmarked), the “% Inhibition @ 10 uM” value was 4.79%. `CC(C)c1ccccc1NC1=NS(=O)(=O)c2ccccc21` was tested, and the “% Inhibition @ 10 uM” value was 4.16%. For `CC(C)(C)c1ccc(C(=O)Nc2ccccn2)cc1`, the “% Inhibition @ 10 uM” value was -4.02%. `Cc1ccc2c(c1)-c1c(cnn1CC(=O)NCCC1=CCCCC1)CO2` was tested, and the “% Inhibition @ 10 uM” value was 5.09%. With `Cc1cc(C(=O)NCC(C)c2ccccc2)n[nH]1` (centres unmarked) the “% Inhibition @ 10 uM” value was 3.95%. In the case of `CCOCCCNc1cnn(C23CC4CC(CC(C4)C2C(=O)O)C3)c(=O)c1Cl` (centres unmarked), the “% Inhibition @ 10 uM” value is reported as 1.15%. With `CC(C)CC(NC(=O)N1CCN(Cc2ccccc2)CC1)C(=O)NCC#N` (centres unmarked) the “% Inhibition @ 10 uM” value was 0.556%. With `COCCN1C(=O)c2oc3cc(C)c(C)cc3c(=O)c2C1c1ccc(OCCC(C)C)c(OC)c1` (centres unmarked) the “% Inhibition @ 10 uM” value was -4.78%. In the case of `O=C(O)c1ccnc(Cl)c1`, the “% Inhibition @ 10 uM” value is reported as -6.67%. `CC(=O)Nc1ccc(NC(=O)CN(c2cccc3ccccc23)S(C)(=O)=O)cc1` was tested, and the “% Inhibition @ 10 uM” value was -2.09%. In the case of `CCC(C)(C)NS(=O)(=O)c1cc(CN2C(=O)c3cccnc3C2=O)ccc1OC`, the “% Inhibition @ 10 uM” value is reported as 3.6%. With `CCOc1ccccc1CNC(=O)CCCn1nc(C)c2c(C)n(-c3ccc(C)cc3)nc2c1=O` the “% Inhibition @ 10 uM” value was 5.14%. In the case of `O=C(O)CCC(=O)Nc1ccc(N2CCN(c3ccc(F)cc3)CC2)cc1`, the “% Inhibition @ 10 uM” value is reported as -0.891%. For `Nc1ncc(Br)cc1S(=O)(=O)NCCC(=O)NCc1ccccc1Cl`, the “% Inhibition @ 10 uM” value was -6.69%. For `CCn1cc(/C=C(\NC(=O)c2ccccc2F)C(=O)NCCCN2CCOCC2)c2ccccc21`, the “% Inhibition @ 10 uM” value was -5.36%. For `C=CCn1c(=N)c(C(=O)NCc2ccco2)cc2c(=O)n3cc(C)ccc3nc21`, the “% Inhibition @ 10 uM” value was -1.47%. For `CC(=O)Nc1ccc(S(=O)(=O)Nc2ccccc2C(N)=O)cc1`, the “% Inhibition @ 10 uM” value was -0.914%. For `Cc1ccc(OCC(=O)NCCN2CCCC2)cc1`, the “% Inhibition @ 10 uM” value was -2.76%. `Cc1ccc(C(=O)NCC2CCCO2)c(F)c1F` (centres unmarked) was tested, and the “% Inhibition @ 10 uM” value was -0.834%. In the case of `Cc1sc(NC(=O)c2ccc3c(c2)OCO3)c(C(N)=O)c1C`, the “% Inhibition @ 10 uM” value is reported as 5.04%. In the case of `CCOc1ccc2nc(SCC(=O)Nc3nc4ccccc4s3)sc2c1`, the “% Inhibition @ 10 uM” value is reported as 3.25%. `COc1cc(-c2[nH]nc3c2C(c2ccc(Cl)c(Cl)c2)C(C#N)=C(N)O3)cc(OC)c1OC` (centres unmarked) was tested, and the “% Inhibition @ 10 uM” value was 0.484%.
